Results published in the RNAGym collection of RNA variant scans (doi:10.7554/elife.90254).
The source gives no read counts; variants with many changes may rest on few reads.

B1: OR4K15 (parent)
chain: GUUAACGGUCAUAGGCCAUGGAAACUAGGAGCACCAUUUCGCUGCCAGUGAAGAAAUGAACAAAGAAAAUCUGGGCCAGGCAGGCAUCAAAAGAAAUAGUCUUGCGCUCAACCAGAAAGUCUGUAAUCAUUUUAAGGGUA

Variants of: B1
Experiment: self-cleavage, relative activity (ratio to wild type); higher = more cleavage; in vitro, sequencing; the parent is a self-cleaving ribozyme
A33U G83A U127C showed a self-cleavage of 0.76.
With C34A U43C A54U A56G U70C the self-cleavage was 1.05.
With A36U C46A A63G A66G the self-cleavage was 1.42.
With A36G A47G A95C the self-cleavage was 0.59.
With U37A U39C U97A A126U the self-cleavage was 1.
With U37C A82G C113U the self-cleavage was 0.05.
Variant U37C A63U A86G A111G has a self-cleavage of 0.03.
In the case of A36U U38C U49A U120C, the self-cleavage is reported as 0.46.
U37C A64G U100C gave a self-cleavage of 2.11.
Work on A33G U39C A78U U87C yielded a self-cleavage of 0.27.
U37C A62G C76G G80A C128A showed a self-cleavage of 0.12.
Work on A36C U37C U87C C121A U132C yielded a self-cleavage of 2.78.
C35A A54G A78U U122C gave a self-cleavage of 0.12.
With U37C A82C U130C the self-cleavage was 0.11.
Work on A36G A67G A134G yielded a self-cleavage of 1.95.
Work on U37C A52G G73A A91G yielded a self-cleavage of 0.06.
A36U U39C A86G A89U U103A showed a self-cleavage of 0.19.
Work on U37C A47U U49A U120A yielded a self-cleavage of 0.88.
Work on C35U A60G A94U yielded a self-cleavage of 0.66.
Variant U37C G41A U72C A94G has a self-cleavage of 0.25.
With A33U U72C U139C the self-cleavage was 0.44.
Variant U37C A54G A68U G73U has a self-cleavage of 0.03.
Variant A36G A51U A91G has a self-cleavage of 0.85.
A36G A67G A82G gave a self-cleavage of 0.64.
Work on A36G A62G A96G yielded a self-cleavage of 1.32.
Work on A33G U39C U72C yielded a self-cleavage of 0.16.
In the case of U37C G50U A110G U122C U131C, the self-cleavage is reported as 0.1.
U37A A114G U130C showed a self-cleavage of 0.18.
A36C A56G G79U gave a self-cleavage of 0.09.
A33U A64U A129G gave a self-cleavage of 0.87.
A36U U39C A62G gave a self-cleavage of 0.97.
Variant U37C A59G A64G has a self-cleavage of 2.22.
A36U U49C U127A gave a self-cleavage of 2.11.
A36G U57A G80A A116G U120A gave a self-cleavage of 0.06.
Work on A33G U120C A135U yielded a self-cleavage of 0.39.
U37C A51G A134G showed a self-cleavage of 1.85.
Work on A36U U49C U87C yielded a self-cleavage of 1.37.
A33G U43C U122C showed a self-cleavage of 0.
A33G U70C U100C showed a self-cleavage of 0.96.
A33U A36G U57C A60G U102A C109A A126G showed a self-cleavage of 0.04.
A36U U39A A89U A117U gave a self-cleavage of 1.
In the case of U37C A62G A118G, the self-cleavage is reported as 0.57.
Variant A36G A78U A92G U103C U130C has a self-cleavage of 0.03.
Variant U37C A67G A118G has a self-cleavage of 0.73.
Variant U37C A51G G137A has a self-cleavage of 1.92.
In the case of C35U A126G U127A, the self-cleavage is reported as 0.32.
C35A U49C C105U gave a self-cleavage of 0.08.
Variant A33G U127C A140G has a self-cleavage of 0.56.
In the case of A33U A82G G83U, the self-cleavage is reported as 0.15.
In the case of C34U A60G A118G, the self-cleavage is reported as 0.54.
In the case of A36G A59G U108C, the self-cleavage is reported as 0.02.
With A36U U49C A56G the self-cleavage was 0.97.
In the case of C34A C40U A86G U100C U124C, the self-cleavage is reported as 1.96.
Work on C34U A60G A62G A111C yielded a self-cleavage of 0.07.
Work on A33U U37C U103C yielded a self-cleavage of 0.56.
Variant A33U A47G A54G A69G A96G A118G has a self-cleavage of 0.41.
A36U U72A U130C gave a self-cleavage of 0.09.
For A36G U57C A110G U127C, the self-cleavage was 0.03.
Variant A36G A67G A78G A140G has a self-cleavage of 0.41.
Variant U37C A69G A94G has a self-cleavage of 1.58.
U37C A60G U87C showed a self-cleavage of 0.39.
In the case of A33G U102A U108C A134G U139A, the self-cleavage is reported as 0.
In the case of C35U G41C U102C, the self-cleavage is reported as 1.51.
With C34U U43C A78G A114G A135G U139G A140U the self-cleavage was 0.01.
Variant C34U A36U A64G A78G has a self-cleavage of 0.28.
Variant C35U A68G U72C U108C A126G has a self-cleavage of 0.
U37A U130C U132C showed a self-cleavage of 1.23.
Variant U37C A90G A118G has a self-cleavage of 0.34.
In the case of C34U A59U C76G U132C, the self-cleavage is reported as 0.06.
For A33U A47G A110G U133A, the self-cleavage was 0.11.
For A36C A86G A116G, the self-cleavage was 1.34.
A33G U102A A117G showed a self-cleavage of 0.54.
With U37C A68C A95G the self-cleavage was 2.52.
In the case of A33G U43C U120C, the self-cleavage is reported as 0.29.
With U37C A54G U132C the self-cleavage was 2.39.
With U37C C46A A47C A62G U102A U122C the self-cleavage was 0.72.
A36G U72C A96G showed a self-cleavage of 0.2.
In the case of C34U A55G A59G A78U, the self-cleavage is reported as 0.24.
A36U U49C G136A gave a self-cleavage of 2.07.
For A36U A59G U130C, the self-cleavage was 1.68.
With A33G U39G A95G U130C the self-cleavage was 0.67.
Variant A36G A60G A118G has a self-cleavage of 1.12.
With A33G U49C A92G A116G A117U the self-cleavage was 0.14.
Work on A36G G44A A95G A111G A140G yielded a self-cleavage of 0.01.
Variant U37C C71G A91G has a self-cleavage of 0.12.
U37C C61U A68G showed a self-cleavage of 2.66.
Work on U37C A64U U87C A114G yielded a self-cleavage of 0.4.
Variant A36U A51G A55G has a self-cleavage of 1.1.
In the case of U37C C109A A116G, the self-cleavage is reported as 0.25.
Variant C34U A36U A47G A126G has a self-cleavage of 0.26.
In the case of C34G A47G A56G A59U U130C, the self-cleavage is reported as 0.84.
In the case of A36U A94G U130C, the self-cleavage is reported as 1.34.
Work on A36G U37C A55G A92G yielded a self-cleavage of 1.78.
A36U A66G A96G gave a self-cleavage of 1.34.
U37C A64U A82U U133A showed a self-cleavage of 0.19.
With A36C A52G A114G U122C the self-cleavage was 0.13.
For A36U G84C A91G U127C U130C, the self-cleavage was 0.06.
A36G A52G A60U A67G showed a self-cleavage of 1.53.
A36G A51G A60G A68U A92G A98G gave a self-cleavage of 0.25.
A33U A55U A59U gave a self-cleavage of 1.6.
U37C A59G A67G showed a self-cleavage of 1.54.
U37C A64G A92G U122C gave a self-cleavage of 0.82.
In the case of A36U U49A A91G A92G A117G, the self-cleavage is reported as 0.92.
Variant A33U A55G U100C U127C has a self-cleavage of 1.81.
U37C A51G A78C A114G showed a self-cleavage of 0.04.
With U37C A64G U120C the self-cleavage was 1.82.
With C35A A55U A114G the self-cleavage was 0.32.
C35A A36U A60G A114U gave a self-cleavage of 0.02.
With U37C A68G A126G the self-cleavage was 0.98.
For U37C A51G A64G A111U, the self-cleavage was 0.14.
Work on A36G A64G A78G yielded a self-cleavage of 0.36.
In the case of C34U A92U A118G, the self-cleavage is reported as 1.34.
In the case of A33G U70C A92G, the self-cleavage is reported as 0.27.
With A33U G84A U100C U127C the self-cleavage was 0.2.
U37C G48A A60U A92G A114G gave a self-cleavage of 0.42.
A33G U49C A54G U70C gave a self-cleavage of 0.19.
Work on U37C C46U C61U A89U yielded a self-cleavage of 2.06.
Work on U37C A86U U131C yielded a self-cleavage of 2.15.
Work on A36U A52G U130G yielded a self-cleavage of 0.8.
A36U A69G A78G showed a self-cleavage of 0.15.
A36G U103A A111G gave a self-cleavage of 0.02.
A36U A95G U120C gave a self-cleavage of 1.18.
A36G A68U G80A A135U showed a self-cleavage of 0.31.
Variant A33U U37C A67G C76U A111G has a self-cleavage of 0.03.
For C34G A82U U87C, the self-cleavage was 0.13.
Variant A36G A68G U131C has a self-cleavage of 1.
C34A A69G A86U A91G U108C showed a self-cleavage of 0.02.
A36U A47G A56G A64U A129G gave a self-cleavage of 0.21.
A36U U37C A54U gave a self-cleavage of 1.7.
In the case of A36U U43A A64G U102C A116G, the self-cleavage is reported as 1.98.
With U37C A52G A78G the self-cleavage was 0.
For U37C A54U A82G A116G A126U, the self-cleavage was 0.36.
In the case of A36G A64G A89G A118G, the self-cleavage is reported as 0.37.
Variant U37C A59G A66U U122A U132A U139C has a self-cleavage of 1.03.
Variant A36G U37C A66G U72A A82G A89U A135G has a self-cleavage of 0.11.
With A33G U49C A60G A94G the self-cleavage was 0.64.
Work on A36G A59U A60G A62G A90G yielded a self-cleavage of 0.87.
In the case of A33G U72A U87C, the self-cleavage is reported as 0.2.
U37C A54G U70G A110G gave a self-cleavage of 0.19.
Work on A33U C85U U122G yielded a self-cleavage of 1.95.
Work on U37C A51U U124C yielded a self-cleavage of 1.11.
Variant A36U A59G A114G A140G has a self-cleavage of 0.53.
Variant A36G A82U C88A U132C has a self-cleavage of 0.19.
U37C A116G C128A showed a self-cleavage of 0.45.
With A36G A64G U72A the self-cleavage was 0.26.
Variant U37C A69G A116G A126G has a self-cleavage of 0.58.
A33U U37C A111U A114G A117G showed a self-cleavage of 0.02.
With A36U A64U A140U the self-cleavage was 1.88.
A33U U57C A82G A92G A95G U130C showed a self-cleavage of 0.55.
A33U A78G G137A showed a self-cleavage of 0.23.
U37C A90G U122C U139C gave a self-cleavage of 0.76.
Variant A36U U49C A126G U139C has a self-cleavage of 0.81.
In the case of A33U G58A U108C A117G, the self-cleavage is reported as 0.01.
A36U A51G A86U showed a self-cleavage of 1.29.
For A36U U100A A116G U130C G138U, the self-cleavage was 0.05.
In the case of U37A A51C A62G A96G U130C, the self-cleavage is reported as 0.24.
Variant U37C A94G C107A has a self-cleavage of 0.03.
In the case of A36G U37C C105U, the self-cleavage is reported as 0.31.
C35U A47U A55G A64G U100C C113U U122C gave a self-cleavage of 0.02.
For A33U A52G A91G A114G A117U, the self-cleavage was 0.14.
A36G A47U U100C showed a self-cleavage of 0.73.
With A33U U87G A140U the self-cleavage was 0.77.
For C34U A51G A78G A91G A114G U122G, the self-cleavage was 0.02.
U37C A78C U132C showed a self-cleavage of 0.24.
U37C A59U U100C gave a self-cleavage of 2.56.
C35U A47U A59G U103C U122C gave a self-cleavage of 0.12.
A36G A52G A82G A95G U122C gave a self-cleavage of 0.75.
